According to the RNAGym collection of RNA variant scans (doi:10.1093/nar/gkz1192):
The source gives no read counts; variants with many changes may rest on few reads.

B1: CPEB3 Ribozyme (parent)
chain: UAACAGGGGGCCACAGCAGAAGCGUUCACGUCGCAGCCCCUGUCAGAUUCUGGUGAAUCUGCGAAUUCUGCUGUAUAUCUC

Variants of: B1
Assay: self-cleavage, relative activity (ratio to wild type); higher = more cleavage; in vitro, sequencing
Outline: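 After error-prone PCR and barcoding, CPEB3 ribozyme mutant libraries were transcribed with T7 RNA polymerase at 37°C for 5 hours, then given 15 min with DNase I before an EDTA stop, and they cleaved during both steps. Reverse transcription with template switching preceded Illumina sequencing. Relative activity divides a variant's cleaved/total read fraction by the unmutated ribozyme's. At least 5 reads were required per variant, and three batches were averaged.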
Work on U1A C29U A47U yielded a self-cleavage of 0.25.
U1A C29U U60A gave a self-cleavage of 0.58.
U1A C32A C40U C44G U49A U72G gave a self-cleavage of 0.05.
For U1A C32U U54A, the self-cleavage was 0.3.
With U1A C32U U54C A56C the self-cleavage was 0.06.
U1A C38G C59A A77U gave a self-cleavage of 0.13.
Work on U1A C39A A45U U49A yielded a self-cleavage of 0.16.
With U1A C40U U51A the self-cleavage was 0.75.
Work on U1A C44U A56G C71U yielded a self-cleavage of 0.07.
In the case of U1A G6C C32U, the self-cleavage is reported as 0.42.
For U1A G6U A20G G63C A64G, the self-cleavage was 0.35.
U1A G6U A20G U31A U43C U54C U72C gave a self-cleavage of 0.18.
In the case of U1A G6U A20G U31C G63C A64G, the self-cleavage is reported as 0.22.
For U1A G6U A47C U49C A64G, the self-cleavage was 0.06.
For U1A G7A U25A A35G A57G, the self-cleavage was 0.19.
With U1A G7A U58A A65G the self-cleavage was 0.06.
U1A G7C A18U A20U U41A showed a self-cleavage of 0.21.
For U1A G7U C37U U54A, the self-cleavage was 0.05.
In the case of U1A G8A A13C, the self-cleavage is reported as 0.13.
U1A G8A C11G U25C U74C A77G gave a self-cleavage of 0.04.
In the case of U1A G8A U31C C81U, the self-cleavage is reported as 0.08.
Variant U1A G8U A21G U31C U43G A45G U66C has a self-cleavage of 0.03.
U1A G8U C17A U26C gave a self-cleavage of 0.23.
Variant U1A G8U U25C U49A U54A A64G U66C has a self-cleavage of 0.05.
Variant U1A G9A A18G U43C has a self-cleavage of 0.07.
Variant U1A G9A A28G U60C U80C has a self-cleavage of 0.05.
Variant U1A G9A C12U U26C U48C U60C has a self-cleavage of 0.05.
Work on U1A G9A G19A A28G A45C yielded a self-cleavage of 0.06.
Variant U1A G9A U41G A56G U60C has a self-cleavage of 0.11.
Work on U1A G9A U49A U67A yielded a self-cleavage of 0.05.
With U1A G9C A15G A35U U43A the self-cleavage was 0.37.
Variant U1A G10A C11U U43G A47U U74C A75C has a self-cleavage of 0.22.
Work on U1A G10A C39G yielded a self-cleavage of 0.1.
U1A G10U U31C A64G U69C U78C showed a self-cleavage of 0.06.
Work on U1A G16C A28G A47G A57G U60C U66G yielded a self-cleavage of 0.08.
With U1A G19A A20U the self-cleavage was 0.27.
In the case of U1A G19A U43A, the self-cleavage is reported as 0.24.
U1A G24A A56U C59U gave a self-cleavage of 0.15.
Work on U1A G24A U26C A28G U51A yielded a self-cleavage of 0.08.
Variant U1A G30A A45G has a self-cleavage of 0.29.
U1A G30A C40A U41A gave a self-cleavage of 0.1.
With U1A G33A A35U U51C U54A U67C the self-cleavage was 0.11.
Variant U1A G33A G42A A57G has a self-cleavage of 0.13.
Variant U1A G33U A35G U51A has a self-cleavage of 0.22.
With U1A G33U A35U U51A G63C the self-cleavage was 0.12.
Work on U1A G33U U41C yielded a self-cleavage of 0.25.
For U1A G33U U67C, the self-cleavage was 0.15.
Work on U1A G36A U41A A45U yielded a self-cleavage of 0.1.
Variant U1A G36C C62G A65C U76C C79U has a self-cleavage of 0.12.
U1A G52A U66A gave a self-cleavage of 0.43.
For U1A G55C A57U U69A A75G, the self-cleavage was 0.23.
U1A U25A U58A U80C gave a self-cleavage of 0.11.
Variant U1A U25C A35G U41A has a self-cleavage of 0.31.
U1A U25C A45G U60C gave a self-cleavage of 0.29.
For U1A U25C A56G, the self-cleavage was 0.13.
U1A U25C C29A U31C U49C U58C U72C showed a self-cleavage of 0.09.
With U1A U25C C37U G52A the self-cleavage was 0.12.
Variant U1A U25C G30A U31C A45U A56G A75G has a self-cleavage of 0.1.
For U1A U25C U43C, the self-cleavage was 0.36.
With U1A U25C U74C the self-cleavage was 0.87.
In the case of U1A U25G A28G A45U U54G A64G, the self-cleavage is reported as 0.05.
In the case of U1A U25G C27U, the self-cleavage is reported as 0.31.
U1A U26A G55A U66C U72A A75U gave a self-cleavage of 0.11.
Variant U1A U26A U31A U41C U58C U74C has a self-cleavage of 0.22.
For U1A U26A U78A, the self-cleavage was 0.96.
In the case of U1A U26C A35U U54A U69C, the self-cleavage is reported as 0.21.
In the case of U1A U26C A47G U51A, the self-cleavage is reported as 0.34.
With U1A U26C C29U A65G A77G the self-cleavage was 0.08.
With U1A U26C U43C the self-cleavage was 0.69.
Work on U1A U26C U80C yielded a self-cleavage of 0.55.
In the case of U1A U31A C34A U49A, the self-cleavage is reported as 0.13.
U1A U31A U60G A65G showed a self-cleavage of 0.11.
For U1A U31C A47C U54C U74A, the self-cleavage was 0.32.
For U1A U31C A57G, the self-cleavage was 0.22.
U1A U31C U54G showed a self-cleavage of 0.8.
U1A U31C U60G U66C showed a self-cleavage of 0.11.
U1A U31C U72C showed a self-cleavage of 0.85.
Variant U1A U31G U72C has a self-cleavage of 0.42.
Work on U1A U41A C44U yielded a self-cleavage of 0.37.
In the case of U1A U41A G55U U80C, the self-cleavage is reported as 0.37.
With U1A U41A U43C the self-cleavage was 0.2.
Work on U1A U41A U48C U60C U67C yielded a self-cleavage of 0.07.
For U1A U41C U43A U51A, the self-cleavage was 0.54.
U1A U41C U48C A56G U60A gave a self-cleavage of 0.19.
Work on U1A U41C U48C U72C yielded a self-cleavage of 0.63.
In the case of U1A U41C U76C, the self-cleavage is reported as 1.16.
For U1A U43A A45G A56U U60A U67A U74C, the self-cleavage was 0.12.
For U1A U43A U54C A64G, the self-cleavage was 1.01.
For U1A U43C A57U U58C U76C, the self-cleavage was 0.08.
U1A U43C A65G gave a self-cleavage of 0.23.
Variant U1A U43C U69C U78A has a self-cleavage of 0.17.
In the case of U1A U48C A57G U69C, the self-cleavage is reported as 0.51.
U1A U48C C71G showed a self-cleavage of 0.15.
For U1A U49A A64G U80C, the self-cleavage was 0.47.
For U1A U49A U78G, the self-cleavage was 0.57.
U1A U49C A57U U60C U78C showed a self-cleavage of 0.14.
Work on U1A U49C U54C A75G yielded a self-cleavage of 0.28.
U1A U51C A56G G63A U78C U80C gave a self-cleavage of 0.65.
For U1A U54A A77U, the self-cleavage was 0.67.
For U1A U54A G73A U80A, the self-cleavage was 1.27.
Variant U1A U54A U76A has a self-cleavage of 1.14.
Variant U1A U54C U72C has a self-cleavage of 0.96.
In the case of U1A U58A A65G U80A, the self-cleavage is reported as 0.04.
U1A U60C G61C U66C showed a self-cleavage of 0.15.
Work on U1A U60C U76G yielded a self-cleavage of 0.09.
With U1A U67C U72C A75G the self-cleavage was 0.27.
For U1A U72A A77G, the self-cleavage was 0.87.
U1A U74C U78C showed a self-cleavage of 1.19.
U1C A2C A3G A45U U74C gave a self-cleavage of 0.72.
Work on U1C A2C C29A U41C G53A yielded a self-cleavage of 0.51.
In the case of U1C A2C U49C A57G U80C, the self-cleavage is reported as 0.67.
U1C A2G A3G A15G showed a self-cleavage of 0.96.
U1C A2G A5U C11U A28G showed a self-cleavage of 0.21.
U1C A2G A13U U25C U41C U78C gave a self-cleavage of 0.4.
With U1C A2G A15C C44U U66A the self-cleavage was 0.03.
U1C A2G A15G U25A U26C U72A A77G gave a self-cleavage of 0.25.
For U1C A2G A15G U26C A56G, the self-cleavage was 0.22.
U1C A2G A18U A21U G22U U41A U43C showed a self-cleavage of 0.07.
For U1C A2G A20G U31A C32U U41A A64G, the self-cleavage was 0.37.
For U1C A2G A21U A64U A65U, the self-cleavage was 0.05.
U1C A2G A56G showed a self-cleavage of 0.69.
In the case of U1C A2G C14U A18U U48C, the self-cleavage is reported as 0.07.
In the case of U1C A2G C23G, the self-cleavage is reported as 0.45.
In the case of U1C A2G G9A A18G G22A U26C, the self-cleavage is reported as 0.05.
Variant U1C A2G G9A U54C U72A has a self-cleavage of 0.05.
U1C A2G G9U U49C U74C gave a self-cleavage of 0.06.
Variant U1C A2G U26C G30A C37A U54C U72G has a self-cleavage of 0.08.
Variant U1C A2G U43A U76C has a self-cleavage of 1.05.
For U1C A2U A3G A57G C62G A65U, the self-cleavage was 0.4.
For U1C A2U A5G G7A A65G U67C, the self-cleavage was 0.2.
For U1C A2U A15U U43C U67C U72C, the self-cleavage was 0.12.
Work on U1C A2U A20U U31C yielded a self-cleavage of 0.07.
For U1C A2U A35U U74C A75U, the self-cleavage was 0.69.
In the case of U1C A2U A45U U72C U80C, the self-cleavage is reported as 0.36.
Work on U1C A2U A56U U72A yielded a self-cleavage of 0.34.
Variant U1C A2U A65G U80C has a self-cleavage of 0.43.
U1C A2U C38A showed a self-cleavage of 0.41.
In the case of U1C A2U U25C A28U G70U, the self-cleavage is reported as 0.07.
With U1C A2U U31A U41A G70C the self-cleavage was 0.07.
Variant U1C A2U U67C has a self-cleavage of 0.19.
In the case of U1C A2U U76A, the self-cleavage is reported as 0.94.
Variant U1C A3C A15G A64G U76C has a self-cleavage of 0.21.
With U1C A3C U31C A56U U58C the self-cleavage was 0.4.
Variant U1C A3G A5G A21G C68A has a self-cleavage of 0.31.
U1C A3G A15U U26C U48C U66A showed a self-cleavage of 0.09.
In the case of U1C A3G A15U U43C U54C U76A, the self-cleavage is reported as 0.18.
U1C A3G A20U A28G U69C showed a self-cleavage of 0.26.
For U1C A3G A21G A47G A57G, the self-cleavage was 0.35.
U1C A3G A45G U51A A75U gave a self-cleavage of 0.73.
In the case of U1C A3G A45U A56U U67C, the self-cleavage is reported as 0.05.
Work on U1C A3G A56U yielded a self-cleavage of 0.63.
For U1C A3G C11G A18G, the self-cleavage was 0.63.
U1C A3G G6A U26C A28G showed a self-cleavage of 0.08.
Variant U1C A3G G8A has a self-cleavage of 0.54.
Work on U1C A3G G9U A35U C59U U69G yielded a self-cleavage of 0.16.
Work on U1C A3G U25C A35G U43G yielded a self-cleavage of 0.19.
Variant U1C A3G U31G U41A U49C U51C A65G has a self-cleavage of 0.04.
U1C A3G U43C showed a self-cleavage of 0.66.
With U1C A3G U51A A57G A65G the self-cleavage was 0.14.
For U1C A3G U51A A65G, the self-cleavage was 0.51.
For U1C A3G U51C, the self-cleavage was 0.87.
With U1C A3G U54C C79A U80C the self-cleavage was 0.96.
U1C A3G U76A showed a self-cleavage of 0.96.
U1C A3U A20G C79U showed a self-cleavage of 1.13.
Variant U1C A3U C4A C23A U25C has a self-cleavage of 0.07.
Variant U1C A5C A20G has a self-cleavage of 0.67.
With U1C A5G A28U C32U U69C U74C the self-cleavage was 0.08.
